Results as given in the BET-seq Pho4 binding data (Le et al. 2018).
The list shows a part of the results. The energies were worked out here from pooled read counts, against the library average; single values are noisy.

Each sequence was assayed against T1, Pho4 (S. cerevisiae) (UniProt P07270) (assay: relative binding free energy (BET-seq); higher = weaker binding). Settings: reference: library average.
T1 sequence: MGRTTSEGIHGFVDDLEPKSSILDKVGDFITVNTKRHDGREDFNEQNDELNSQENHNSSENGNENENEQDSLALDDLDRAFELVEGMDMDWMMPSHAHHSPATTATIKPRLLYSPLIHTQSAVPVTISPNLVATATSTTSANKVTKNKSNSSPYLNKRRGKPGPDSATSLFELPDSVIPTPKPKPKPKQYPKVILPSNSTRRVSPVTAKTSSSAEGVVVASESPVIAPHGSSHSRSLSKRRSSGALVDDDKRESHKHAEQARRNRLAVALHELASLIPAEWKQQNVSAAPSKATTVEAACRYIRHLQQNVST

Relative binding free energy, 0.14 kcal/mol:
ACGTTCACGTGTTGGG
ATAGGCACGTGAGCGG

Relative binding free energy, -0.35 kcal/mol:
CATAGCACGTGGGTGT

Relative binding free energy, -0.26 kcal/mol:
AAGTCCACGTGGTGTG

Relative binding free energy, 0.08 kcal/mol:
ATGGACACGTGATGTA
GTCGACACGTGGCGGG
TTGGTCACGTGTCTTT
TTGTACACGTGTGCGG
TGAGACACGTGGTTTC

Relative binding free energy, 0.38 kcal/mol:
TTTTTCACGTGCGAAT

Relative binding free energy, 0.05 kcal/mol:
CTGATCACGTGGTGAT
TTCGACACGTGGGATG
GAGATCACGTGGTAGG

Relative binding free energy, 0.06 kcal/mol:
CATAGCACGTGTGAGT
AAAGGCACGTGATGAT
TTTGTCACGTGGTGCT
GGTTACACGTGCTTGA
TGTTACACGTGCATAT
TTGATCACGTGGGTGT

Relative binding free energy, 0.27 kcal/mol:
GGTGTCACGTGATTTG
TTGTTCACGTGATTAT

Relative binding free energy, 0.23 kcal/mol:
AGGTTCACGTGTCAGT
CTGATCACGTGTTTTG
GGCGCCACGTGAGAGG
TTTTTCACGTGGGCTG
GACGACACGTGAGGGG

Relative binding free energy, 0.1 kcal/mol:
AGTGTCACGTGTCTAG
CAGTTCACGTGGGGGT
TTCGGCACGTGTGTTT

Relative binding free energy, 0.2 kcal/mol:
ATTTTCACGTGTCGTG
GTCTTCACGTGGGTCA
GTATTCACGTGCTGGG

Relative binding free energy, 0.12 kcal/mol:
AGCGGCACGTGGAAAT
GGGGTCACGTGCTAAT
AATTGCACGTGTCGAG
TGTGTCACGTGCGATA
ATTAGCACGTGAGTTT
TTTGGCACGTGTATTT
CGGTTCACGTGGGTGG
AGGGTCACGTGCTTAA

Relative binding free energy, -0.3 kcal/mol:
AGTGGCACGTGGCATG
CCGGGCACGTGGGTAT

Relative binding free energy, 0.45 kcal/mol:
AGAGTCACGTGAGGAT
GGCATCACGTGAAGGG

Relative binding free energy, 0.07 kcal/mol:
GGTGCCACGTGTGATT
TTGAACACGTGCGAGT
GTGGACACGTGTTGCA
TCGGTCACGTGTGTGG

Relative binding free energy, -0.15 kcal/mol:
GATGGCACGTGTGCAG
GGTGGCACGTGGGGGC
AAGTGCACGTGGCGCG

Relative binding free energy, -0.23 kcal/mol:
TTACGCACGTGTGCGT
CCTGGCACGTGGGGGA
ACGAGCACGTGGGTAT

Relative binding free energy, -0.04 kcal/mol:
ATTGTCACGTGGCGAT
GGCTGCACGTGGAGGT
GTAACCACGTGGGAGT
GGAAGCACGTGTTGTG
TGAGTCACGTGGGGCG

Relative binding free energy, 0.19 kcal/mol:
GGAACCACGTGAGTGG
TGTTTCACGTGTTAGC
AGGTTCACGTGTTGAA

Relative binding free energy, 0.11 kcal/mol:
ATGGACACGTGTTGGC
ATTTGCACGTGGATGT
AGGATCACGTGGCGTT
TTTAGCACGTGATGTC

Relative binding free energy, 0.32 kcal/mol:
GGGTGCACGTGAGATC
GCTTACACGTGAGTTG
AAAGTCACGTGAGTTG
TTTTTCACGTGTTATT

Relative binding free energy, -0.22 kcal/mol:
AGCTGCACGTGGGTGT
GCGGGCACGTGGGCAG

Relative binding free energy, 0.02 kcal/mol:
AAGGTCACGTGGTTGA
TGTGTCACGTGGCTCA
GCTTGCACGTGGTGCG
ATATACACGTGGTTTA
TCGTACACGTGGTAGG

Relative binding free energy, -0.24 kcal/mol:
AGGCGCACGTGGGATA
TTTGCCACGTGGGAAG

Relative binding free energy, 0.33 kcal/mol:
ATTTACACGTGAGAGA

Relative binding free energy, -0.11 kcal/mol:
GCTGGCACGTGGCGGT
ACTTGCACGTGCGGTG

Relative binding free energy, 0.01 kcal/mol:
ATAGTCACGTGCGTGG
TTTCGCACGTGTTTAG

Relative binding free energy, 0.03 kcal/mol:
AGTACCACGTGGATGG
GCTTGCACGTGGCGTT
GGCGTCACGTGGTTCG
ATTGTCACGTGTCGAG
ATTGTCACGTGCGAGT

Relative binding free energy, -0.19 kcal/mol:
CTGGACACGTGGGGGA

Relative binding free energy, 0.37 kcal/mol:
GAGATCACGTGAATTG

Relative binding free energy, 0.04 kcal/mol:
TGTGGCACGTGTTAAA
TTAGACACGTGTGGCA

Relative binding free energy, 0.16 kcal/mol:
ATGGTCACGTGAGACG
CGGTACACGTGTGGGC
AAGCACACGTGTTTGT

Relative binding free energy, 0.13 kcal/mol:
GTGGGCACGTGGAATT
TTTTACACGTGCGTCT
TTTTACACGTGGATCT
GTGTCCACGTGATGTA
TTTCGCACGTGAGGGA
TGGGACACGTGATCAG
TAGGTCACGTGCAAGG
GGGTCCACGTGTATAG
GGGATCACGTGTATTG

Relative binding free energy, -0.01 kcal/mol:
GGCTCCACGTGGTTGG
GTATGCACGTGGGATG
TTCGACACGTGTTTTG
TTTGTCACGTGCTAGT
ATGGCCACGTGATTGG
ATGGACACGTGGTCAT
TGTATCACGTGGGCTA

Relative binding free energy, 0.42 kcal/mol:
GAGTTCACGTGTACGT
GACTTCACGTGTAGGT
GATTTCACGTGATATA

Relative binding free energy, 0.35 kcal/mol:
ATTTTCACGTGTGGGG

Relative binding free energy, -0.29 kcal/mol:
ATTGGCACGTGGGGAG

Relative binding free energy, -0.07 kcal/mol:
GGAGGCACGTGTGAGT
TGCGGCACGTGGACTG
AGGGACACGTGCGGTG
AGCTGCACGTGGGGCG
CATGACACGTGGTGTA
TGTAACACGTGGGTGG

Relative binding free energy, -0.05 kcal/mol:
GCGGGCACGTGGACGT
GGCTACACGTGGGGGG
TATTGCACGTGATAGA
TTCGTCACGTGGGGGC
ATGAGCACGTGCGGTA
TTAGGCACGTGACGGG

Relative binding free energy, 0.29 kcal/mol:
GACTGCACGTGAGCGG
GGCTTCACGTGTTTGG
AATTTCACGTGAGCGT
GGGTCCACGTGAGCTG
TTTGTCACGTGGAAGA

Relative binding free energy, 0.39 kcal/mol:
TGGTTCACGTGAGTTC

Relative binding free energy, -0.1 kcal/mol:
GGACGCACGTGTGAGG
TTTAGCACGTGCTATT
TGGTGCACGTGCAGAT
GGGTACACGTGGGCTG
TTGCACACGTGCGTGG
CGTAGCACGTGTTTGT

Relative binding free energy, -0.08 kcal/mol:
GCGGGCACGTGGTATT
TCATACACGTGGTGGG
TTTGACACGTGTATAA

Relative binding free energy, -0.12 kcal/mol:
AAGAGCACGTGGTTTT
CTGGGCACGTGGTATT
GGGGCCACGTGGTGGA
GGGGGCACGTGCTAGT
AGGGGCACGTGTTCTG
TGTGCCACGTGGATCG

Relative binding free energy, 0.09 kcal/mol:
AGTTACACGTGGTTTT
TGGATCACGTGGTGTC
ATGTACACGTGTGTGT
AATCGCACGTGATGTG
GTTCACACGTGGCTGT
CGGGGCACGTGAAGGC
AAAGGCACGTGAGTGT

Relative binding free energy, -0.06 kcal/mol:
TACTGCACGTGTGGGC
CTATGCACGTGTGGTG

Relative binding free energy, 0.15 kcal/mol:
TGAGACACGTGGCGTT
TAGTGCACGTGAGCGT
AGGATCACGTGGATCG
ATTAGCACGTGAGAGG
GGCAACACGTGTGGTT

Relative binding free energy, -0.28 kcal/mol:
AATCGCACGTGGGTGT

Relative binding free energy, 0.25 kcal/mol:
GTTTGCACGTGTCTAA
GTGTTCACGTGGCTTC
AGCTACACGTGTGGGA

Relative binding free energy, 0.28 kcal/mol:
TGTGTCACGTGATTCT
GAGTTCACGTGGTTAA
TAGTCCACGTGATTGG

Relative binding free energy, -0.16 kcal/mol:
GCAAGCACGTGGGATG

Relative binding free energy, -0.21 kcal/mol:
AGTGGCACGTGGACTT
CATGGCACGTGGGTGG
AGGCACACGTGGGGTG

Relative binding free energy, 0.31 kcal/mol:
TTGGTCACGTGACGGA
TGTTACACGTGAACGG
TTTTGCACGTGAAAGA

Relative binding free energy, -0.17 kcal/mol:
TATGGCACGTGGTATG

Relative binding free energy, 0.26 kcal/mol:
AGGGTCACGTGACGCG
TTGGTCACGTGATTTT
TAGGTCACGTGAGGCG

Relative binding free energy, -0.13 kcal/mol:
GAGGGCACGTGCTGGG
TGTTGCACGTGCTATT

Relative binding free energy, 0.21 kcal/mol:
GGTGGCACGTGAAGTA
CTCTTCACGTGGTTTA
TCATGCACGTGCGGGC
GTATGCACGTGGATTG
GTTTTCACGTGTAACG
AGGCTCACGTGCGTTT

Relative binding free energy, 0.22 kcal/mol:
CGTTTCACGTGTTTGA
TGAGTCACGTGGAAGG

Relative binding free energy, 0.18 kcal/mol:
TGAATCACGTGTATTA
CTATTCACGTGCGTTT
TGTGCCACGTGAAGGG
GAGGGCACGTGTAATG
GGACTCACGTGGAGGT

Relative binding free energy, 0.17 kcal/mol:
GCTTGCACGTGTGGTC
TACTTCACGTGTGGTG
TTGGGCACGTGAGCTG
TAGTACACGTGTTACG

Relative binding free energy, -0.09 kcal/mol:
TATGGCACGTGCGTTT
TGGTGCACGTGGTAAG
GTAAACACGTGGGCGT

Relative binding free energy, -0.14 kcal/mol:
ATTACCACGTGTTTGT

Relative binding free energy, -0.03 kcal/mol:
TGGGGCACGTGTAGAC
AAGGGCACGTGATGGC
TTCAGCACGTGGTAGG
TTATCCACGTGTTTTT

Relative binding free energy, -0.02 kcal/mol:
ATGCGCACGTGTGATG
AGTGACACGTGGCTTG
GTGTCCACGTGTTTTG
GGTGGCACGTGTGACA

Relative binding free energy, 0.24 kcal/mol:
TGCTTCACGTGATGGT
TGTTTCACGTGGAATT

Relative binding free energy, 0.34 kcal/mol:
GGGCACACGTGAGATG

Relative binding free energy, 0.3 kcal/mol:
GGGTTCACGTGCGTAT
GTAAGCACGTGAGCGG

Relative binding free energy, 0 kcal/mol:
TTAATCACGTGGGTCA
TTGGACACGTGGTCAG
CTTGTCACGTGGTCGG
TTTGACACGTGGCCTG
GTTATCACGTGGGTAA
AAAAACACGTGTTGTT
AGCTGCACGTGTGGGG

Relative binding free energy, -0.18 kcal/mol:
CCTTGCACGTGGGGGT
TGTAGCACGTGGGGGG
TATAGCACGTGCTGTT
TAGAGCACGTGTTGCG

Relative binding free energy, -0.27 kcal/mol:
CCATGCACGTGGTGGT
